Measured values as given in the supplement of paper PMC10126150.
Values marked as one replicate rest on one cluster of the flow cell; about a third of the high ones do not repeat.

Tested on: ATP
Assay: switch fluorescence ratio, 500 uM ATP over buffer (Cy3 cluster intensity, sum of 5 cycles each) (fold (ratio)); higher = stronger signal-on switching upon ATP binding; sequences stand for … in TCGTCGGCAGCGTCAGATGTGTATAAGAGACAGTTTTTTTTTTTTTTTTTTTTTTTTT…TC
Details: aptamer strand: ATP DNA aptamer (quencher-CACCTGGGGGAGTATTGCGGAGGAAGG + anchor), 100 nM annealed; ATP concentration: 500 uM; one replicate
Procedure, shortened: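 Exposure to 500 uM ATP lasted 15 min at 22 °C before imaging, and a selection-buffer image was taken beforehand, for Cy3-labelled switching-strand clusters on a modified Illumina MiSeq flow-cell annealed to 100 nM quencher-labelled ATP aptamer. Five buffer/ATP cycles were run with NaOH stripping and re-annealing between them. The fluorescence ratio per cluster is summed target-cycle over summed buffer-cycle Cy3 intensity, averaged per switch-domain sequence. Clusters outside 100-1000 RFU were excluded.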

Row | Sequence | switch fluorescence ratio
1 | CACGTTTGAT | 1
2 | CGGGCATACG | 1.13
3 | TAATAATAGC | 0.986
4 | CGTACTGGGG | 1.06
5 | ATGGTTAGG | 0.953
6 | ATATAGGAAT | 0.968
7 | GTCACGCACT | 1.9
8 | GAAGTACGCA | 1.33
9 | CGCGTCCAAA | 0.969
10 | CAGGGCATGA | 1.07
11 | CGTTTTGATG | 0.993
12 | ATTTTAACTC | 0.958
13 | GGTAGGGAAG | 0.979
14 | AGAGGCCTGG | 0.967
15 | TTATATACTG | 0.976
16 | AGCTCCATGG | 1.03
17 | CGGCTAAG | 1.02
18 | TAACAACCTA | 1.06
19 | GACGTCTGTC | 1.04
20 | TAGTAATA | 1.03
21 | GATTATCCG | 0.963
22 | TACTTCTAGT | 0.972
23 | ATACACCAGA | 1.07
24 | CATTGCTGTT | 1
25 | CGTTTAGTTA | 0.974
26 | GACTGACTTG | 0.959

Row | Sequence | switch fluorescence ratio
27 | CGTAGACATC | 1.11
28 | TGCCCGGT | 0.998
29 | CGGCTTTAGG | 0.995
30 | ATGGATTCGC | 1.04
31 | AGCTGGTGGT | 0.998
32 | ATTTTTAACG | 0.981
33 | CCCAGGGCGT | 1.03
34 | AAGTTCTGCG | 0.956
35 | TGCTACGGGG | 1.08
36 | TCTGACGTGT | 1.03
37 | ATGCGATCAT | 0.964
38 | ACCTGTGTCG | 1.01
39 | CTAACCCATT | 1.03
40 | TGGTTATCTG | 0.999
41 | TTTTGCGCCT | 1.07
42 | GACGAGAGT | 1.03
43 | TCGCCTAGAA | 1.02
44 | CGATAGAGAA | 1.01
45 | GATGGGACGC | 1.03
46 | ACTATGGGCG | 1.09
47 | TTGACTTTCT | 1.04
48 | CTCTCTAATG | 0.985
49 | TGTATGTCTT | 1.06
50 | CCCGTGGGGT | 0.983
51 | GGCTCTTGCC | 1
52 | GCGTCACACG | 0.988

Row | Sequence | switch fluorescence ratio
53 | GGATTGGTGT | 0.998
54 | TTATGAGGTC | 1.08
55 | TATGCCCGG | 1.01
56 | TTCTTTTATT | 0.985
57 | ACGTTTGTAG | 0.998
58 | TCCTGGGGCG | 0.99
59 | TCTTTGTTTG | 1.02
60 | GGAGTAGGTG | 0.985
61 | TAGTACGT | 1.06
62 | ACTCACTTGC | 1.27
63 | GGAAGAGCTC | 0.985
64 | GATACTACTT | 1.05
65 | AAGGATACCA | 1.02
66 | ATCACGAGCT | 1.02
67 | GAGGCACATG | 1.05
68 | GAAAACCCTT | 1.05
69 | TTTGGAGGCG | 0.927
70 | TCGGGGACTT | 0.979
71 | ATTGAGATA | 0.968
72 | ATATGCCTGC | 0.968
73 | CATAGATGAA | 0.974
74 | CGAAATTGGT | 0.961
75 | CTTACTAGAT | 0.99
76 | ATTCCAGTTG | 1.01
77 | GTTGTCAGGA | 0.993
78 | TCCGTCTGTG | 1.01

Row | Sequence | switch fluorescence ratio
79 | TAGCGAATTG | 1.01
80 | ATCGCCTGA | 1.02
81 | TCGATGTTGC | 1.04
82 | ATGTCCGCTT | 1.16
83 | GTGCAATCGT | 1.17
84 | TGCTCAATCT | 0.982
85 | TTGTATAGCC | 1
86 | CTGTGGGATG | 1
87 | CTGATACGG | 0.955
88 | AAAGGATATT | 0.984
89 | AGCTATCGGA | 1.02
90 | TATACTATAG | 0.998
91 | TTGTAGGGGC | 1.04
92 | GCACGCTTCT | 1.04
93 | TAAGGTGGGC | 1.01
94 | AGTATCTGAC | 1.1
95 | GGACTATTGT | 1
96 | CATAACGTCT | 1.05
97 | AGCTGCCCGG | 1.04
98 | TTATATTGCC | 0.935
99 | CTAGAGGGC | 1.02
100 | GACTAAGGGC | 1.05
101 | TGGCCCGTA | 1.06
102 | GATCCTCAAA | 0.995
103 | GTATCCAGCC | 0.955
104 | TTAAACTATT | 1.02

Row | Sequence | switch fluorescence ratio
105 | AGATAGATAG | 0.957
106 | CTAGATCCGC | 1.48
107 | GCTTTTTTGC | 0.965
108 | AAACGGCTGC | 1.01
109 | ACTTAGATT | 1.04
110 | GACGGCTGTT | 0.975
111 | CTACTTTCT | 0.99
112 | AGATCCGTGC | 1.14
113 | TCACGTAGCA | 1.38
114 | AGATCAAGCA | 0.978
115 | CAGTCGACGC | 0.979
116 | GAACGCGATG | 1.91
117 | AAGTTGGCTA | 1.04
118 | ATGCACGACG | 1.05
119 | GGCGATCATG | 0.986
120 | CCAAGCCGCG | 1.09
121 | CGGACGGGCC | 0.959
122 | CACCCGGGAT | 1.14
123 | AGGTCGTGCG | 0.981
124 | CTGTATAGTA | 1.01
125 | GAGGTCCGTA | 0.92
126 | GGGTGCTAT | 1.03
127 | CCGAGGTAT | 2.93
128 | CAACCCTCGA | 1.03
129 | GCTGGATTCC | 1.02
130 | CGACCACTCG | 1.02

Row | Sequence | switch fluorescence ratio
131 | GTTAACGCTG | 1.03
132 | GATCGCACCT | 1.4
133 | CTGGCGGGGC | 1
134 | TTTTTACCAG | 1
135 | CTGGGTTGAG | 0.969
136 | TTAGGAATCT | 0.979
137 | CAGGCATATT | 1.02
138 | AAGACTGGAC | 1.09
139 | AGGCGCCGTG | 1
140 | ATGGAGGTA | 0.992
141 | CTGCATGTTA | 1.03
142 | CAACACTGGT | 1.04
143 | CCATGAGAGC | 1.05
144 | AGCCAAAACA | 0.96
145 | TTATAGAAA | 1.02
146 | CAAGATAAAG | 1.01
147 | AAAGTTATCG | 0.981
148 | TAGCTTTTAC | 3.42
149 | CAACGTTGGC | 0.98
150 | GGCTCTGGTG | 1.24
151 | GTCAGGTTCG | 0.988
152 | TAACGCAAA | 1.3
153 | ATATAGCGGT | 0.848
154 | TATGGAGAGT | 0.976
155 | TTACAACGCA | 1.14
156 | TGCCGCAAGA | 2.19

Row | Sequence | switch fluorescence ratio
157 | ATCGAACGAT | 0.966
158 | ACTAATGTTC | 1.03
159 | CCGTGGCGAC | 2
160 | CGAATGGGTG | 0.978
161 | TTGGGTGGCC | 1.08
162 | TAGTAACGTG | 0.946
163 | AATCTAATAT | 0.996
164 | TGGCAATGGA | 1.03
165 | GCGGATGGCT | 0.99
166 | TCAGTGCGCA | 1.02
167 | GATTCCAAGA | 1.01
168 | CGCCGTAATC | 2.43
169 | TTCCCAGAAT | 1.69
170 | CTAATATCGG | 1.04
171 | ACCTCTAGTA | 1.03
172 | ATTTACATCT | 1.07
173 | CATCCACTCG | 1.08
174 | AGTCCAGGGG | 0.923
175 | GAGGTGAAAG | 1.02
176 | GAGTCGATCT | 0.963
177 | GGATAAGCTC | 0.991
178 | AGTTCCTGT | 0.985
179 | AGGACGGGAG | 0.993
180 | ACTGTGCTAA | 1.06
181 | CCTGCCTATA | 2.06
182 | AGAATAGAA | 1

Row | Sequence | switch fluorescence ratio
183 | GTGATTTACG | 0.987
184 | ACCATATCAC | 1.12
185 | CGTCGGCCTG | 0.993
186 | CCAGACAGAT | 1.03
187 | TACATCAGCA | 0.994
188 | GATCTAGTAG | 0.992
189 | CTGTTAGTAG | 0.995
190 | GAAACAAA | 0.994
191 | TGTAGCGTAA | 1.13
192 | TATAACGATT | 1.01
193 | TCAGACCAGG | 1.02
194 | AAGGGTGGAC | 0.974
195 | CCATCTAGGG | 0.995
196 | CGCCCTGAGC | 0.994
197 | CACGGAGTGC | 1.03
198 | TGTACCTGGG | 1.02
199 | AACTGGGTAT | 0.959
200 | GAGCGGCAAT | 1.21
201 | AGTGACCATG | 0.983
